# Experimental data taken from article PMC4336329 (PLoS ONE, 2015).
# Screen size: about 310,000 compounds; about 14,000 (4.5%) showed an effect of 50% or more. Effects have a minus sign here. The list shows a part of the results.
# Molecular target: human ether-à-go-go-related gene (hERG) potassium channel (human, UniProt Q12809)
# Experiment: primary screen, population patch clamp on CHO cells stably expressing hERG
# 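Further: peak tail current of the secondary pulse compared with the same well before compound.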
# Chain of human ether-à-go-go-related gene (hERG) potassium channel (Q12809 whole entry, looked up): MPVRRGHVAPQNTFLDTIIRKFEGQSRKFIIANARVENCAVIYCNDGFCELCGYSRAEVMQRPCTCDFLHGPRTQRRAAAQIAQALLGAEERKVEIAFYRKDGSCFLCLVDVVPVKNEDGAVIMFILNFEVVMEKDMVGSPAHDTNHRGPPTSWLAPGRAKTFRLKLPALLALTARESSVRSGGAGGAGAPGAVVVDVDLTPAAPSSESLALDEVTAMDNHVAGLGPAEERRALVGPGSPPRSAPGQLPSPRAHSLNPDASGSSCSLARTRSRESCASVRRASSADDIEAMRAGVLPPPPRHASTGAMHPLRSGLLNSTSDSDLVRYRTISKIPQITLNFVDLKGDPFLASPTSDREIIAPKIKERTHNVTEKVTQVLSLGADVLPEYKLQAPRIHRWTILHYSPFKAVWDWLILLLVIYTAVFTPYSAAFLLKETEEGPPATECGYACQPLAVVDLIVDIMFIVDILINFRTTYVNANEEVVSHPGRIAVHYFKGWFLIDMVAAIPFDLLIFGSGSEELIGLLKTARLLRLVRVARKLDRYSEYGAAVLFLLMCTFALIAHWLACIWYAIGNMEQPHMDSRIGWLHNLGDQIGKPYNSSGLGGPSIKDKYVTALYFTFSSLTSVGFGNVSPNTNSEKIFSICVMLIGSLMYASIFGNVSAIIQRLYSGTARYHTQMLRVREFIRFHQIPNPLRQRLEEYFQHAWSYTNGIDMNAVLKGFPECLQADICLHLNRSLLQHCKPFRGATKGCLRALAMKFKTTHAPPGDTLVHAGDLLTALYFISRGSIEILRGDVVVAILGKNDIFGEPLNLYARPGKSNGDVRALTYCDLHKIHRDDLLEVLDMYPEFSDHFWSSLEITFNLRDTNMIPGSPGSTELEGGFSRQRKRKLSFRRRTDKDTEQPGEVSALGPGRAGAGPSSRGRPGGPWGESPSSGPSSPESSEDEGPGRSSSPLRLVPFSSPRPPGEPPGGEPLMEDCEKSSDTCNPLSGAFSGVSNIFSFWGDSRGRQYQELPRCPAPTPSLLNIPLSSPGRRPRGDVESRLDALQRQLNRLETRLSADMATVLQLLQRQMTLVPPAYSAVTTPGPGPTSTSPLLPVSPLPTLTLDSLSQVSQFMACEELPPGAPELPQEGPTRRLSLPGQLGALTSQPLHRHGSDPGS
row,SMILES,"hERG current change (%, negative = inhibition) at 10uM [%]"
1,CCOc1cccc(C(=O)NC(=S)Nc2cccc(NC(=O)c3ccccc3Cl)c2)c1,16.5
2,Cc1nc2ccccc2c(=O)n1-c1ccc(F)c(NC(=O)c2cccs2)c1,-22.6
3,COC(=O)c1cc(OC)c(OC)cc1NC(=O)CC1CCCCC1,-0.091
4,CCCC(NC(=O)CCl)c1ccccc1 (stereo not drawn),4.67
5,CS(=O)(=O)N1CCN(C(=O)c2cc3ccccc3oc2=O)CC1,-0.0734
6,COc1ccc(S(=O)(=O)N2CCC(C(=O)N3CCCCC3)CC2)cc1,2.83
7,CN(CC(=O)Nc1ccc(F)cc1)C(=O)COC(=O)/C=C/c1cccs1,11.3
8,CC(C)(CC(=O)OCC(=O)Nc1ccccc1F)CC1=NS(=O)(=O)c2ccccc2N1,0.85
9,CC(C)N1C(=O)c2ccccc2N(Cc2ccccc2)S1(=O)=O,-0.116
10,COc1cc(OC)cc(C(=O)N[C@H](C(=O)OCC(=O)Nc2ccc(C(N)=O)cc2)C(C)C)c1,-40.5
11,CCc1ccc(OCC(=O)NC(NC(=S)Nc2ccc(Cl)cc2)C(Cl)(Cl)Cl)cc1 (stereo not drawn),6.97
12,Nc1nc(NCC2CCCO2)nc(Nc2cccc(Cl)c2)c1[N+](=O)[O-] (stereo not drawn),-1.02
13,COc1ccc(CNC(=O)C(C)Sc2nc3ccccc3c(=O)n2CCCN2CCOCC2)cc1 (stereo not drawn),-84.9
14,COCCOc1cc(NC(=O)CS(=O)CC(=O)N(C)C)c(Cl)cc1Cl (stereo not drawn),13.2
15,COc1ccc2[nH]c(C(=O)NCCCN3CCCC3=O)c(C)c2c1,0.0274
16,Cc1ccc(-n2nnnc2SCC(=O)c2c(N)n(C3CC3)c(=O)[nH]c2=O)c(C)c1,-4.23
17,Cc1nnc2n(-c3ccccc3)c(=O)c3c4c(sc3n12)CCCC4,-13.7
18,CC(NC(=O)Cn1cc([N+](=O)[O-])cn1)c1ccc(C(C)(C)C)cc1 (stereo not drawn),1.71
19,COCCn1c(SCC(=O)NC2CC2)nc2ccccc21,8.72

row,SMILES,"hERG current change (%, negative = inhibition) at 10uM [%]"
1,COc1ccc(N2CCN(C(=O)COc3ccc4c(C)cc(=O)oc4c3C)CC2)cc1,20.6
2,COc1ccc(C(CNC(=O)c2oc3ccccc3c2C)N2CCCC2)cc1 (stereo not drawn),-43.8
3,COc1cccc(NCc2cc3c(C(C)(C)C)nn(-c4ccccc4)c3[nH]c2=O)c1,4.57
4,Cc1ccc2c(c1)c1c(n2CC(O)Cn2nc(C)c(Br)c2C)C(=O)CCC1 (stereo not drawn),18.6
5,COc1ccc(OC)c(S(=O)(=O)NCC(c2cccs2)N2CCc3ccccc3C2)c1 (stereo not drawn),-16.9
6,COc1ccc(C(=O)O/N=C(\N)c2ccccc2Cl)cc1OC,-0.412
7,COc1ccc(/C=C(\C#N)C(=O)OCC(=O)N(C)C2CCS(=O)(=O)C2)cc1 (stereo not drawn),-17
8,O=C(O)CCCN1C(=O)/C(=C\c2ccccc2OCc2ccccc2)SC1=S,9.19
9,CCOc1ccc(NC(=O)Nc2ccc(Cc3ccncc3)cc2)cc1,1.1
10,COc1ccccc1N1CCN(C(=O)CN(C2CCCCC2)S(C)(=O)=O)CC1,-1.8
11,CCN(CC)CCCNc1ncnc2ccccc12.Cl,-13.1
12,Cc1ccc(CC(=O)Nc2cc([N+](=O)[O-])ccc2F)cc1,16.1
13,O=C(NC(=S)NCCC1=CCCCC1)c1cccnc1,-2.49
14,Cc1ccc[n+](C(C)C(=O)Nc2ccc([N+](=O)[O-])cc2C)c1.[Br-] (stereo not drawn),16.7
15,CCOc1ccc(NC(=O)[C@@H](NC(=O)OCc2ccccc2)[C@@H](C)CC)cc1,13.1
16,COc1ccc(OC)c(C2=NS(=O)(=O)N(C)C(C(=O)Nc3ccc(F)cc3F)=C2)c1,13
17,O=C(ON=C1CCSCC1)c1ccccc1,2.28
18,Cc1cccc(C(=O)N/N=C/c2ccoc2)c1,13.3
19,COCc1cc(C)nc(OCC(=O)N/N=C/c2ccc(OC)c(O)c2)c1C#N,-11.2

row,SMILES,"hERG current change (%, negative = inhibition) at 10uM [%]"
1,O=C(NCCCn1ccnc1)c1ccc(COc2ccccc2)o1,-25.7
2,O=C(CSc1nc(O)c(C2CCCCC2)c(=O)[nH]1)NCC1CCCO1 (stereo not drawn),-7.2
3,O=C(/C=C/c1ccco1)c1cccnc1,6.42
4,Cc1ccc(NC(=O)CCOc2ccccc2)cc1,2.02
5,COc1ccc(Cc2nc(-c3ccc(Cl)cc3)no2)cc1,7.36
6,Cc1nc(SCc2c(F)cccc2Cl)n[nH]1,-8.42
7,O=C(CCn1nnc2ccccc21)Nc1nnc(Cc2ccc(F)cc2)s1,-3.64
8,CCCCCCCC(=O)N/N=C/c1ccc(Br)cc1,11.8
9,CNC(=O)CSc1nc2c([nH]c3ccccc32)c(=O)n1CCOC,-9.32
10,O=C(Cn1cnc2c(nnn2-c2ccc(F)cc2)c1=O)N1CCCC1,-1.53
11,CCC(c1nc2ccccc2c(=O)n1-c1nc2ccccc2s1)N1C(=O)c2ccccc2C1=O (stereo not drawn),11.8
12,CCOC(=O)C(O)(c1ccc(NC(=O)NC2CCCCC2)cc1)C(F)(F)F (stereo not drawn),1.15
13,Cc1ccc(C(=O)N2CCN(S(=O)(=O)c3ccc(C(C)C)cc3)CC2)s1,-36.6
14,Cc1nn(Cc2ccc(F)cc2)c2sc(C(=O)Nc3ccccc3N3CCOCC3)cc12,6.49
15,CC(C)(C)c1n[nH]c(=S)n(N)c1=O,6.84
16,Cc1ccsc1/C=N/NC(=S)NCc1ccccc1,11.8
17,Cc1cc(S(=O)(=O)N2CCOCC2)ccc1OCC(=O)Nc1ccc(F)cc1,-18.9
18,Cc1ccc(C(=O)NCCNC(=O)CN2CCOCC2)cc1,13.3
19,COc1cc(Nc2nnc(C)s2)c(Cl)cc1Cl,3.92
